Assay results taken from paper PMC9911399, “Two distinct binding modes provide the RNA-binding protein RbFox with extraordinary sequence specificity”.
Positions count from the first letter of the chain named. This is one part of the list.

T1: RBFOX1 RRM RbFoxmut (Fox-RRM*) (Homo sapiens, UniProt Q9NWB1 109-208, R118D;E147R;N151S;E152T)
T1 sequence: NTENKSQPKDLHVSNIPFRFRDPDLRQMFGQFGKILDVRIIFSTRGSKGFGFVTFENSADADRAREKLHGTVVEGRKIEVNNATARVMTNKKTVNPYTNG

B1: AUGGCAC (DNA:RNA)
RNA: GGGAGACCGGAAUUCAGAUUGUCCAUGGCACUUAAAUCCCGUCGUAGCCACCA
DNA 1: CAATCTGAATTCCGGTCTCCC
DNA 2: TGGTGGCTACGACGGGATT
B2: UCCGACA (DNA:RNA)
RNA: B1 RNA with A25U, U26C, G27C, C29A, A30C, C31A
DNA 1: CAATCTGAATTCCGGTCTCCC
DNA 2: TGGTGGCTACGACGGGATT
B3: CUUAAAC (DNA:RNA)
RNA: B1 RNA with A25C, G27U, G28A, C29A
DNA 1: CAATCTGAATTCCGGTCTCCC
DNA 2: TGGTGGCTACGACGGGATT
B4: CCGGCUU (DNA:RNA)
RNA: B1 RNA with A25C, U26C, A30U, C31U
DNA 1: CAATCTGAATTCCGGTCTCCC
DNA 2: TGGTGGCTACGACGGGATT
B5: GCCGACU (DNA:RNA)
RNA: B1 RNA with A25G, U26C, G27C, C29A, A30C, C31U
DNA 1: CAATCTGAATTCCGGTCTCCC
DNA 2: TGGTGGCTACGACGGGATT
B6: GUCGCUG (DNA:RNA)
RNA: B1 RNA with A25G, G27C, A30U, C31G
DNA 1: CAATCTGAATTCCGGTCTCCC
DNA 2: TGGTGGCTACGACGGGATT
B7: AAUCUAG (DNA:RNA)
RNA: B1 RNA with U26A, G27U, G28C, C29U, C31G
DNA 1: CAATCTGAATTCCGGTCTCCC
DNA 2: TGGTGGCTACGACGGGATT
B8: GGACUAC (DNA:RNA)
RNA: B1 RNA with A25G, U26G, G27A, G28C, C29U
DNA 1: CAATCTGAATTCCGGTCTCCC
DNA 2: TGGTGGCTACGACGGGATT
B9: GACCCGA (DNA:RNA)
RNA: B1 RNA with A25G, U26A, G27C, G28C, A30G, C31A
DNA 1: CAATCTGAATTCCGGTCTCCC
DNA 2: TGGTGGCTACGACGGGATT
B10: UUGCCUU (DNA:RNA)
RNA: B1 RNA with A25U, G28C, A30U, C31U
DNA 1: CAATCTGAATTCCGGTCTCCC
DNA 2: TGGTGGCTACGACGGGATT
B11: AUUGGAA (DNA:RNA)
RNA: B1 RNA with G27U, C29G, C31A
DNA 1: CAATCTGAATTCCGGTCTCCC
DNA 2: TGGTGGCTACGACGGGATT
B12: AGGAUUC (DNA:RNA)
RNA: B1 RNA with U26G, G28A, C29U, A30U
DNA 1: CAATCTGAATTCCGGTCTCCC
DNA 2: TGGTGGCTACGACGGGATT
B13: UCUAGUC (DNA:RNA)
RNA: B1 RNA with A25U, U26C, G27U, G28A, C29G, A30U
DNA 1: CAATCTGAATTCCGGTCTCCC
DNA 2: TGGTGGCTACGACGGGATT
B14: CGGCGAU (DNA:RNA)
RNA: B1 RNA with A25C, U26G, G28C, C29G, C31U
DNA 1: CAATCTGAATTCCGGTCTCCC
DNA 2: TGGTGGCTACGACGGGATT
B15: AGUCUUU (DNA:RNA)
RNA: B1 RNA with U26G, G27U, G28C, C29U, A30U, C31U
DNA 1: CAATCTGAATTCCGGTCTCCC
DNA 2: TGGTGGCTACGACGGGATT
B16: UGACUCU (DNA:RNA)
RNA: GGGAGACCGGAAUUCAGAUUGUCCUGACUCUUUAAAUCCCGUCGUAGCCACCA
DNA 1: CAATCTGAATTCCGGTCTCCC
DNA 2: TGGTGGCTACGACGGGATT
B17: UAUAUUC (DNA:RNA)
RNA: B16 RNA with G26A, A27U, C28A, C30U, U31C
DNA 1: CAATCTGAATTCCGGTCTCCC
DNA 2: TGGTGGCTACGACGGGATT
B18: GUUAUAC (DNA:RNA)
RNA: B1 RNA with A25G, G27U, G28A, C29U
DNA 1: CAATCTGAATTCCGGTCTCCC
DNA 2: TGGTGGCTACGACGGGATT
B19: CUGUAGU (DNA:RNA)
RNA: B1 RNA with A25C, G28U, C29A, A30G, C31U
DNA 1: CAATCTGAATTCCGGTCTCCC
DNA 2: TGGTGGCTACGACGGGATT
B20: GGCUUUC (DNA:RNA)
RNA: B16 RNA with U25G, A27C, C28U, C30U, U31C
DNA 1: CAATCTGAATTCCGGTCTCCC
DNA 2: TGGTGGCTACGACGGGATT

Molecular target: T1, RBFOX1 RRM RbFoxmut (Fox-RRM*)
Assay: EMSA; HiTS-Eq, 1 nM pool, 10 min; buffer printed only for the single-RNA assays: 10 mM Tris pH 7.5, 150 mM NaCl, 3.4 mM EDTA, 0.001% NP-40, 30 C
Settings: tags: His6 N-terminal (pET28a); label: 5' 32P
In short: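 Purified RbFox RRM, wild type or mutant, was incubated for 10 min in 50 µL with 1 nM of a 5′-radiolabelled RNA pool carrying 7 randomized nucleotides, whose flanks were annealed to DNA oligonucleotides, over a series of increasing protein concentrations. Unbound RNA was resolved on 8% native PAGE, cut out, reverse-transcribed, barcoded by PCR and sequenced on an Illumina HiSeq 2500. Relative association constants were derived from changes in read counts for each RNA species versus the control reaction and normalised to the cognate motif.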

B1 was tested. Which binding signal did it give?
The binding signal was 0.132 KA relative to UGCAUGU.

B2 was tested. Which binding signal did it give?
The binding signal was 0.0756 KA relative to UGCAUGU.

B3 was tested. Which binding signal did it give?
The binding signal was 0.0994 KA relative to UGCAUGU.

Which binding signal does the source give for B4 here?
Its binding signal is 0.0778 KA relative to UGCAUGU.

For B5, which binding signal is on record?
Its binding signal is 0.0806 KA relative to UGCAUGU.

Which binding signal does the source give for B6 here?
The binding signal was 0.129 KA relative to UGCAUGU.

For B7, which binding signal is on record?
The binding signal was 0.0724 KA relative to UGCAUGU.

With B8 as the binder, how does the binding signal read?
The binding signal was 0.0748 KA relative to UGCAUGU.

For B9, which binding signal is on record?
The binding signal was 0.0751 KA relative to UGCAUGU.

Which binding signal does the source give for B10 here?
The binding signal was 0.0951 KA relative to UGCAUGU.

Which binding signal does the source give for B11 here?
The binding signal was 0.119 KA relative to UGCAUGU.

With B12 as the binder, how does the binding signal read?
Its binding signal is 0.183 KA relative to UGCAUGU.

How did the binding signal turn out when B13 was run?
The binding signal was 0.0753 KA relative to UGCAUGU.

With B14 as the binder, how does the binding signal read?
The binding signal was 0.0672 KA relative to UGCAUGU.

With B15 as the binder, how does the binding signal read?
Its binding signal is 0.0677 KA relative to UGCAUGU.

For B16, which binding signal is on record?
The binding signal was 0.0642 KA relative to UGCAUGU.

For B17, which binding signal is on record?
Its binding signal is 0.0799 KA relative to UGCAUGU.

B18 was tested. Which binding signal did it give?
Its binding signal is 0.114 KA relative to UGCAUGU.

Which binding signal does the source give for B19 here?
Its binding signal is 0.143 KA relative to UGCAUGU.

For B20, which binding signal is on record?
Its binding signal is 0.0896 KA relative to UGCAUGU.
